# In PubChem BioAssay AID1240 (Sanford-Burnham Center for Chemical Genomics, 2008):
# About 800 (1.6%) of roughly 50,000 compounds showed an effect of 50% or more. The list shows a part of the results.
# Biological target: Bcl-2-like protein 10 (Homo sapiens) (UniProt Q9HD36)
# Assay: Phenotype converters, Bcl-B/TR3 peptide binding displacement, primary biochemical FP (AID 1240);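 also: 0% = Bcl-B with tracer peptide and DMSO and 100% = tracer peptide lacking Bcl-B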
# Settings: GST-Bcl-B / FITC-TR3 peptide fluorescence polarization; stronger effect = higher value; compound at 3.75 mg/L
# Sequence of UniProt Q9HD36 (Q9HD36 whole entry, looked up): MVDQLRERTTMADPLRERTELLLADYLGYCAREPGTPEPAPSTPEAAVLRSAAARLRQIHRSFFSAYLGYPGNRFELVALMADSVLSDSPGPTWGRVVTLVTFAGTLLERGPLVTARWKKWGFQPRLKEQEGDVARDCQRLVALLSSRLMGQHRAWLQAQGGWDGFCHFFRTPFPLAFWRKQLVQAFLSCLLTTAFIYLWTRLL
row,Compound,displacement [%]
1,Cc1cc(C)c(S(=O)(=O)NCc2ccncc2)c(C)c1,11.4
2,O=P(CCCO)(c1ccc(Cl)cc1)c1ccc(Cl)cc1,-24.4
3,O=C(Nc1ccc(S(=O)(=O)N2CCCCCC2)cc1)c1ccccc1[N+](=O)[O-],-5.1
4,Cc1ccc(-c2nc3cc(Cl)ccc3o2)cc1NC(=O)c1ccc2ccccc2c1,128
5,COc1cc(/C=N/n2cnnc2)ccc1OCCOc1ccc(C(C)(C)C)cc1,-0.9
6,O=C(NC1CCCCC1)c1ccc(Br)c(S(=O)(=O)N2CCOCC2)c1,-2.8
7,COC(=O)c1c(N2C(=O)C=CC2=O)sc(C)c1C,-0.2
8,COC(=O)C1=C(C)NC2=C(C(=O)c3ccccc32)C1c1ccc(OCc2ccc([N+](=O)[O-])cc2)c(Cl)c1 (stereo not drawn),13.6
9,COc1ccc2c(c1)OCC/C2=N\OC(=O)c1cc(F)c(F)cc1Cl,9.5
10,O=C(NCCOc1ccccc1Cl)c1cccc2ccccc12,13.4
11,Cc1nnc(C)n1/N=C/c1ccc(O)cc1,-1.3
12,CCOC(=O)CCc1c(C)nc2cc(-c3cccc(Cl)c3)[nH]n2c1=O,-4.3
13,O=C(Cc1ccc(Cl)cc1)NCc1cccnc1,-6
14,Cc1cc(NC(=O)c2ccc(-c3ccccc3)cc2)no1,-5.6
15,CCC(=O)Nc1c(-c2ccc(C)cc2)nc2ccccn12,20
16,O=C(COc1ccc2ccccc2c1)Nc1ccc(S(=O)(=O)N2CCCC2)cc1,0.6
17,CC(=O)Nc1nonc1-c1ccccc1,-11.6
18,COc1cc(/C=C2\N=C(c3ccccc3Cl)OC2=O)ccc1OC(=O)c1ccccc1Cl,-7.3
19,CCc1ccc(OCC(=O)Nc2ccc(NC(=O)c3ccco3)c(OC)c2)cc1,-17.6
20,CCCOC(=O)/C(=C\c1cccc([N+](=O)[O-])c1)NC(=O)c1ccccc1,-8.7
21,CC(=O)Oc1ccc2c(=O)c(-c3nc4ccccc4[nH]3)c(C)oc2c1,12.2
22,O=C(Nc1ccc2c(c1)OCCO2)c1cccc([N+](=O)[O-])c1,13

row,Compound,displacement [%]
1,Nc1ccc(NC(=O)c2ccccc2)cc1,39.8
2,O=C(CSc1ncccn1)N/N=C/c1ccccc1Cl,1.2
3,COc1ccccc1NC(=O)N1CCOCC1,-6.8
4,Cc1cccc(CC2CC(=O)N(c3ccc(Cl)c(Cl)c3)C2=O)c1 (stereo not drawn),11.4
5,O=C(O)CCN1C(=O)/C(=C/c2cn(-c3ccccc3)nc2-c2cccs2)SC1=S,-14.1
6,COc1ccc(Cl)cc1C(=O)N1CCN(c2cccc(Cl)c2)CC1,12.3
7,CCc1ccccc1NS(=O)(=O)c1cccs1,-1.4
8,C=CCOc1c(Cl)cc(/C=C2\C(=O)NC(=O)N(c3ccc(Cl)cc3)C2=O)cc1OC,4.5
9,CC1=NN(C(=O)c2ccccc2)C(C)(O)C1 (stereo not drawn),-11.2
10,O=C(Nc1cccc(C(F)(F)F)c1)c1cnn2c(C(F)(F)F)cc(-c3cccs3)nc12,13.5
11,COc1ccccc1N1CCN(S(=O)(=O)c2ccc(SC)cc2)CC1,11.2
12,COC(=O)CC12CC3CC(C1)CC(CC(=O)OC)(C3)C2,14.3
13,CN=C(Nc1ccccc1OC)SC1CC(=O)N(c2ccccc2F)C1=O (stereo not drawn),-12.1
14,O=S(=O)(c1ccc(Br)cc1)n1nnc2ccccc21,11
15,COc1nc(Nc2ccc(I)cc2)nc(OC)n1,-0.1
16,Cc1ccc(NC(=O)c2cccc(C(=O)Nc3ccc(C)cc3)n2)cc1,7.4
17,CC(C)(O)C#Cc1ccc(C(=O)OCC(=O)c2ccc([N+](=O)[O-])cc2)cc1,1.8
18,COc1ccc(/C=C2/SC(N3CCN(C(=O)CN4C(=O)S/C(=C\c5ccccc5F)C4=O)CC3)=NC2=O)cc1,11.1
19,COc1cc(NC(=O)C(=O)NCc2ccco2)c(OC)cc1Cl,-10.7
20,O=C(NCCNc1ccc([N+](=O)[O-])cc1)c1ccccc1Br,29.5
21,COc1ccc(-c2cc(C(F)(F)F)n3ncc(C(=O)Nc4ccc5c(c4)OCO5)c3n2)cc1OC,7.1
22,CCc1ccccc1NC(=O)c1c(NC(=O)c2cccs2)sc2c1CCCCC2,0.3

row,Compound,displacement [%]
1,C=CCNC(=O)C1CC(=O)N(c2ccc(CC)cc2)C1 (stereo not drawn),-1.8
2,COc1ccc(N(CC(=O)Nc2ccc(Br)cc2)S(C)(=O)=O)cc1Cl,-11
3,CC1=C(C(=O)OC(C)C)C(c2cccc(Cl)c2Cl)C2=C(CCCC2=O)N1 (stereo not drawn),3.3
4,CCN(CP(=O)(O)CN1CCOCC1)C(C)=O,17.6
5,CCOC(=O)c1c(C)n(C)c2ccc(OC(=O)C#Cc3ccccc3)cc12,1.1
6,O=C(NCCN1CCOCC1)Nc1ccc(Cl)c(Cl)c1,-1.1
7,CN(C)/C=C1\N=C(c2cccc(Br)c2)OC1=O,0.8
8,CCOc1cccc(C2CC(=O)Nc3c2ccc2ccccc32)c1 (stereo not drawn),-11.7
9,Cc1ccc(N=C2NC(=O)/C(=C\c3ccc(C)o3)S2)cc1,-9.8
10,CCOc1ccc(NC(=O)CN(c2ccc(OC)c(Cl)c2)S(=O)(=O)c2ccccc2)cc1,1.3
11,Cc1ccc(C(=O)Nc2ccc(NC(=O)c3ccco3)cc2)cc1C,-0.4
12,COC(=O)C1=C(C)N(c2cccc(C)c2)C(=O)/C1=C\c1ccc(C(=O)O)cc1,6.9
13,O=C(Nc1ccccc1C(=O)NC(Cc1c[nH]c2ccccc12)C(=O)O)c1ccco1 (stereo not drawn),-8.9
14,O=[N+]([O-])c1ccc(O)c(-c2nc(-c3ccccc3)c(-c3cccs3)[nH]2)c1,16.1
15,COc1ccccc1OCCSc1nc2ccc(N)cc2s1,1.6
16,COc1cc(/C=C2/NC(=S)NC2=O)ccc1OCc1ccc(I)cc1,4.3
17,CCN1C(=O)/C(=C\c2ccc(OCc3cccc4ccccc34)cc2)SC1=S,106
18,CCOc1ccc(C(=O)Nc2ccc(C(C)C)cc2)cc1,7.7
19,O=C(Nc1c(-c2ccccc2)nc2sccn12)c1ccc(Cl)cc1,-0.4
20,CC(C)c1ccc(/C=N/NS(=O)(=O)c2ccccc2)cc1,-10.1
21,CCOC(=O)c1c(NC(=O)c2ccc(N3C(=O)CCC3=O)cc2)sc(C)c1C,5.4
22,CCCOC(=O)c1cccc(NC(=O)COc2ccccc2OC)c1,-2.6

row,Compound,displacement [%]
1,CC12CN3CC(C)(CN(C1)C3c1cn(Cc3ccccc3)c3ccccc13)C2=O (stereo not drawn),6.5
2,CCCC(C)NC(=O)c1ccc([N+](=O)[O-])cc1Cl (stereo not drawn),-4.4
3,COC(=O)C1=C(C)N(c2ccc(C)cc2)C(=O)/C1=C\c1cccc(OC)c1O,13.7
4,COc1ccc(Cl)cc1NC(=O)CC(C)=O,4.5
5,O=C(/C=C/c1ccc(Cl)cc1Cl)Nc1ccc(C(=O)Nc2ccccc2)cc1,-6.4
6,COc1cccc(NC(=O)c2ccc3ccccc3c2)c1,-13.3
7,C=CCn1c(O)c(C=NCC2(C)CC(O)CC(C)(C)C2)c(=O)[nH]c1=S (stereo not drawn),22.4
8,CCCCNCCCCCCOc1c(C)cccc1C,-4
9,C/C(=N\NC(=O)c1ccccc1Cl)c1ccc(O)cc1,-9.3
10,O=C(Nc1c(C(=O)N2CCOCC2)cnn1-c1ccccc1)c1cccc(F)c1,-1.5
11,O=C1C2=C(Nc3ccccc3SC2c2ccc3c(c2)OCO3)c2ccccc21 (stereo not drawn),-16.3
12,C=C(C)CNC(=S)NNC(=O)c1ccc(Br)cc1,-7.3
13,O=C1C(=O)N(CCCn2ccnc2)C(c2ccccc2[N+](=O)[O-])/C1=C(\O)c1ccc(Cl)cc1 (stereo not drawn),-3.3
14,CC1(C(=O)N/N=C/c2ccc3c(c2)OCO3)CC1(Br)Br (stereo not drawn),-3.2
15,Cc1n[nH]c(C)c1Sc1ccccc1N=Cc1cc([N+](=O)[O-])ccc1O,3.6
16,CC1(C)NC(=O)N(CC(O)COc2cccc3ccccc23)C1=O (stereo not drawn),1.6
17,O=C(Nc1ccccc1)Nc1nnc(/C=C/c2ccccc2)s1,16.7
18,CCOC(=O)c1c2c(n(C)c1CNC(C)C)C(=O)C(=O)c1ccc(Br)cc1-2,12.6
19,COc1ccc(C2C(C(=O)OC(C)C)=C(C)N=c3s/c(=C\c4cccs4)c(=O)n32)cc1 (stereo not drawn),14.9
20,O=C1NC(=S)N/C1=C/c1cc([N+](=O)[O-])cc([N+](=O)[O-])c1O,6.6
21,Cc1c(NC(=O)Nc2ccc(Cl)cc2)c(=O)n(-c2ccccc2)n1C,8
22,CCCOc1cccc(C(=O)Nc2cc(OC)c(OC)cc2C(=O)O)c1,-2.5

row,Compound,displacement [%]
1,O=C1N=c2ccc(Br)cc2=C1c1sc(=S)n(C(Cc2ccccc2)C(=O)O)c1O (stereo not drawn),15.6
2,CC(/C=C1\SC(=S)N(C(C(=O)O)C(C)C)C1=O)=C\c1ccccc1 (stereo not drawn),-7.1
3,COc1ccc2c(c1)-c1c(ssc1=S)C(C)(C)N2C(=O)c1ccccc1OC,14.8
4,CCOCCOCCN1C(=O)c2ccccc2C1=O,-11.9
5,Cc1ccc(C2=NC(=O)/C(=C/c3ccc4c(c3)OCO4)S2)cc1,0.5
6,CC(C)c1ccc(/C=C2/C(=O)NN(c3ccc(F)cc3)C2=O)cc1,-6.7
7,CCC(=O)Nc1ccc(Cl)c(-c2nc3ncccc3o2)c1,18.8
8,N#CC(C#N)=Cc1cn(CC(=O)Nc2ccccc2)c2ccccc12,-17.6
9,C/C(=C\COc1cc(=O)[nH]c2ccccc12)CCC1OC(C)(C)OC1(C)C (stereo not drawn),-2.7
10,CC(C)(CN1CCOCC1)NS(=O)(=O)c1ccccc1,16.9
11,Cc1cc(=O)n2[nH]c(-c3ccccc3Cl)cc2n1,13.1
12,COc1ccc(C2CC(=O)C3=C(C2)Nc2ccccc2NC3c2ccc3c(c2)OCO3)cc1 (stereo not drawn),3.5
13,O=C(Cc1c(O)c2ccccc2[nH]c1=O)NCc1ccncc1,43.5
14,COc1ccccc1N(CC(=O)Nc1ccccc1Br)S(=O)(=O)c1ccccc1,-1.7
15,COc1ccc(S(=O)(=O)N2CCN(c3ccc(Cl)cc3)CC2)cc1,9.5
16,CC(=O)NS(=O)(=O)c1ccc(NC(=O)CCCOc2ccc(Cl)cc2Cl)cc1,12.4
17,O=C(Nc1ccc(Cc2ccncc2)cc1)c1ccc2ccccc2c1,-3.2
18,COc1ccc(C2CC(O)C(C)C(c3ccc(OC)cc3)N2)cc1 (stereo not drawn),7.8
19,O=C1C2C3c4ccccc4C(c4ccccc43)C2C(=O)N1c1ccc(Br)cn1 (stereo not drawn),-1.4
20,CN1CCN(c2ccc([N+](=O)[O-])c(-n3nc(-c4ccc(F)cc4)c4ccccc4c3=O)c2)CC1,2.5
